Assay results reported in the supplement of paper PMC10126150.
Values marked as one replicate rest on one cluster of the flow cell; about a third of the high ones do not repeat.

System: ATP
Assay: switch fluorescence ratio, 500 uM ATP over buffer (Cy3 cluster intensity, sum of 5 cycles each) (fold (ratio)); higher = stronger signal-on switching upon ATP binding; sequences stand for … in TCGTCGGCAGCGTCAGATGTGTATAAGAGACAGTTTTTTTTTTTTTTTTTTTTTTTTT…TC
Conditions: aptamer strand: ATP DNA aptamer (quencher-CACCTGGGGGAGTATTGCGGAGGAAGG + anchor), 100 nM annealed; ATP concentration: 500 uM; one replicate
Outline: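 Five buffer/ATP imaging cycles were run on Cy3-labelled switching-strand clusters on a modified Illumina MiSeq flow-cell, with NaOH stripping and re-annealing between cycles. In each cycle, clusters annealed to 100 nM quencher-labelled ATP aptamer were imaged in selection buffer, then after 15 min with 500 uM ATP at 22 °C. Per cluster, the fluorescence ratio is summed target-cycle over summed buffer-cycle Cy3 intensity, averaged per switch-domain sequence. Only clusters within 100-1000 RFU were kept.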
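Also: ATP exposure 15 min at 22 °C before imaging.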

Row | Sequence | switch fluorescence ratio
1 | CACTGTTAC | 1.4
2 | CACGTGAAAT | 0.982
3 | GTGGTCCTT | 0.97
4 | ATTCAGTCGG | 0.981
5 | CTTCACGTCG | 0.985
6 | TGACACGGTC | 1.14
7 | TGACATTGTT | 1.01
8 | CGCACGCCTC | 1.68
9 | ACTGAAAGGT | 0.993
10 | GGACGACGCA | 1.6
11 | AGGGGAGCTG | 1.02
12 | CTCATACTAT | 1.03
13 | GTGGTATAGA | 1.03
14 | ACATCATAAC | 0.984
15 | TCAGCAATAT | 1.04
16 | ACCTTGTGAC | 1.24
17 | ACTCTCTCTC | 1.02
18 | CTGTGGAAAC | 1
19 | GATAAAGGGA | 1.04
20 | CAATTTAAAG | 0.959
21 | GTCCTCATGG | 0.997
22 | ATTTGTTTAA | 0.998
23 | ACTTTGGTAG | 0.982
24 | GCACGGAAGA | 1.12
25 | TTATGCCCTA | 0.969
26 | GATATTAGAC | 0.993

Row | Sequence | switch fluorescence ratio
27 | AGTGGAGTTA | 0.986
28 | TCCAGCAGGG | 1.09
29 | TCATGTCAAC | 0.929
30 | GAGCTAGATT | 0.976
31 | TGCTGATCGG | 0.994
32 | GAAGAAGTGG | 0.983
33 | AGGACTTAGC | 1.01
34 | GCATGTACTG | 1.05
35 | CACCTAGTAT | 1.06
36 | AATTAATTCA | 0.97
37 | GCGCGAGAGT | 1.1
38 | CAATGTGTAA | 1
39 | AACCAAACAA | 1.04
40 | GCCATTAACT | 1.01
41 | TCTTTGCTAA | 1.04
42 | TGTGGGACTG | 1.01
43 | GTGGGACGG | 0.993
44 | GTTATTGGGC | 0.984
45 | TCCACACCAA | 1.32
46 | AATTCTTCAA | 1.04
47 | ATCATATCTT | 1.03
48 | TTTAGGGCGT | 0.944
49 | CTTAACGCCG | 1.04
50 | GAGTCCTAGG | 0.962
51 | GACGAGACGG | 1.07
52 | TGGACAAGCG | 1.01

Row | Sequence | switch fluorescence ratio
53 | TAGTTATTT | 1.01
54 | TTTCCTCGTC | 1.19
55 | TCTTTGTAGG | 1.04
56 | CACGTTGTCG | 1.08
57 | TTTCGGCGG | 0.989
58 | GGATACACGT | 1.03
59 | CACGTCGCGT | 1.03
60 | TAGACATGGG | 1.1
61 | ATAAAGAGTA | 1
62 | CAAGAACGAT | 1
63 | AACGTCCTCG | 0.994
64 | AACGTTCGAC | 1.12
65 | ACTAAGAGTA | 0.987
66 | ATAGGAGAAT | 1
67 | ATGGGAACGT | 0.951
68 | CTAGGTGCGT | 1.07
69 | CCGGTTTTCA | 1.07
70 | GCCGATACAA | 1.25
71 | AGCTGGGCCG | 1
72 | GCTAAGATTT | 1.03
73 | TAGGGAACC | 1.94
74 | GACGACCAGT | 1.05
75 | TCTTTAATC | 0.944
76 | TGCGGGGTGA | 0.958
77 | TCGCGTTGGT | 0.988
78 | GACCACCAAC | 1.23

Row | Sequence | switch fluorescence ratio
79 | AGAAAGGCCC | 0.954
80 | GATATTCCGA | 1
81 | GCGACTTTCT | 0.971
82 | AGGTTTACGG | 1.03
83 | GAGTGGCAGG | 1.02
84 | TCAATACGTA | 1.11
85 | ACATGCGAAA | 1.02
86 | TGTGTGAAA | 1.01
87 | CATTGCTGGA | 1.02
88 | GAGGAGGTGT | 0.985
89 | TTGAGAGCAT | 1.04
90 | GCCCAATGT | 1.01
91 | AGTAGGGGAT | 0.998
92 | GAACATCCGG | 1
93 | GATGCACTTG | 1.01
94 | GGTGTACAGT | 1.01
95 | ACCCTTCTTT | 1.53
96 | TTGGCCAGGG | 1.06
97 | GGATAAGCCC | 0.984
98 | GAGCATGAGA | 1.08
99 | GAACACGCGC | 1.05
100 | CGCGCACATT | 1.16
101 | ATTATTTGGG | 1.01
102 | AATTCGTTAG | 0.96
103 | TCACCGCGAG | 2.71
104 | CGTCTTGCCT | 0.984

Row | Sequence | switch fluorescence ratio
105 | TCGAAGGAAC | 1.05
106 | GGAATGAGAG | 1
107 | GACCTTGCGA | 1.54
108 | CGAGCAGACA | 1.46
109 | CTTCATTCAG | 1.01
110 | GGTTTATAGA | 0.976
111 | GAGTCTACAG | 0.969
112 | AGACTTTCAC | 1.1
113 | ATGATCCGC | 1.7
114 | AGAACACCTG | 1.04
115 | CCATTTAAAT | 1.01
116 | TCATGGTACT | 1.04
117 | ACGGAGTTGT | 1.04
118 | TTTTTCTCT | 0.997
119 | CCGCACTTCC | 1.73
120 | TAGAGAGTGT | 0.985
121 | GCTAGTCGTG | 0.941
122 | CCCGACTCAT | 1.46
123 | TTAAGGTCCC | 1.05
124 | AAGGTGAACT | 1.04
125 | TGCATCCAAA | 1.03
126 | TTGCATGTAG | 1.03
127 | CTTAAATAAT | 0.998
128 | TGCGCCATAG | 1.48
129 | TTAGTTCGTC | 1.07
130 | GCAGGCTTC | 1.05

Row | Sequence | switch fluorescence ratio
131 | CGTCAGGGTT | 1
132 | ATTATGGAGA | 1.01
133 | ATTCGGAGAT | 0.965
134 | GGCTTTTGG | 0.944
135 | CCTAACAAAA | 1.04
136 | AAAGCGTCTT | 0.996
137 | CGATACTGCT | 0.991
138 | GTGGACGGGA | 1.01
139 | CGTTAGGGC | 1.01
140 | TCGCCATGGC | 0.972
141 | GTATCAGAAT | 0.986
142 | ACCATGGGGG | 1.03
143 | GTTGTGAGAC | 1.02
144 | TTATCAGCTC | 0.979
145 | CAAGGGATGT | 1.02
146 | GCCCTTTGTG | 1.04
147 | TCGGTTCATA | 1
148 | ATCTTGCGAC | 1.16
149 | GTGAGACATC | 1.01
150 | GAGTACAGGA | 1.03
151 | GGTTGAGAAG | 1.03
152 | TTTTCCATGC | 1.05
153 | GAAATGCAGG | 1.09
154 | TACGAAGAGG | 1.03
155 | TAATACTGTG | 0.995
156 | TCACAAATCC | 0.982

Row | Sequence | switch fluorescence ratio
157 | ATGCGCGGAC | 1.51
158 | ATGTTTGAAT | 0.998
159 | TAGTGCGTA | 0.931
160 | ATTAGGTCTT | 1.04
161 | ATCGGTCAAA | 0.973
162 | TTCTATGGAT | 0.982
163 | TAGTTTTCCA | 0.977
164 | ATAGGCTCA | 1.01
165 | CAGCGCTAGA | 1
166 | GGTAATATAG | 0.99
167 | CACATGCA | 0.997
168 | GATGGGATGT | 0.98
169 | CAGCAATTGA | 1.53
170 | GGTTCCGGAT | 0.982
171 | AATTGGGTC | 1.02
172 | CGGCCTTTGT | 1.08
173 | TATTGCCCGA | 0.976
174 | ATCTGCCTA | 0.996
175 | TTGTGATCCG | 1.06
176 | AGTTGTCATC | 0.946
177 | AGGAAGAAGC | 1.01
178 | CATAGATAGA | 1
179 | TCCAGTGGAC | 1.01
180 | ACAAAACGAG | 1.06
181 | TCCTGTGAGT | 0.971
182 | CCGTATTCTT | 1.03

Row | Sequence | switch fluorescence ratio
183 | GGTCTATGGG | 1
184 | CTTCTAGT | 0.978
185 | GCCAAATACG | 1.22
186 | ACAATATGCC | 1.1
187 | GTTAGTCCTG | 1.01
188 | TTATGTAGGA | 0.991
189 | GATATCAAGC | 0.986
190 | CTGAAAAACT | 0.998
191 | CCTTGAGCAG | 3.31
192 | AACCAGAGAG | 1.06
193 | CCGGTCGGGC | 1.03
194 | TTCAATCAA | 1.04
195 | ACTGTAACCG | 1.13
196 | AATCGCTACC | 1.13
197 | TGCTGTTTTC | 1.03
198 | TATTGCGGAC | 1.03
199 | GGGGTTCTCT | 1.02
200 | TCAAGTTGG | 1.01
201 | AGTCTACGTA | 0.995
